Measured values reported in the supplement of paper PMC4604168 (melanoma cell lines).
Some of the results follow. Many values rest on one well or one pass, so single values are uncertain.

Tests used:
Test in all cases: cell count relative to DMSO control; melanoma cells; higher = more viable cells
Conditions in all cases: library dose: low library concentration; 72 h
MZ2-MEL = system: MZ2-MEL
MeWo = system: MeWo
RPMI7951 = system: RPMI7951
RVH-421 = system: RVH-421
SkMel28 = system: SkMel28
SkMel2 = system: SkMel2
SkMel30 = system: SkMel30
UACC62 = system: UACC62
SkMel5 = system: SkMel5
UACC257 = system: UACC257
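Note: cell number obtained by counting DAPI-stained nuclei in high-throughput microscope images with image analysis software, screen run in 1,536-well plates.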

| SMILES | cell count (MZ2-MEL) [%] | cell count (MeWo) [%] | cell count (RPMI7951) [%] | cell count (RVH-421) [%] | cell count (SkMel28) [%] | cell count (SkMel2) [%] | cell count (SkMel30) [%] | cell count (UACC62) [%] | cell count (SkMel5) [%] | cell count (UACC257) [%] |
| --- | --- | --- | --- | --- | --- | --- | --- | --- | --- | --- |
| Nc1cccc2c1CN(C1CCC(=O)NC1=O)C2=O (stereo unspecified) [lenalidomide] + C[C@]1(c2nc3c(C(N)=O)cccc3[nH]2)CCCN1 [Veliparib] (first compound 1 µM, partner dose 1.4 µM) | 110 | 99.4 | 109 | 96.4 | 106 | 93.5 | 89.6 | 96.1 |  |  |
| Cn1c(Nc2ccc(C(F)(F)F)cc2)nc2cc(Oc3ccnc(-c4ncc(C(F)(F)F)[nH]4)c3)ccc21 + C[C@]1(c2nc3c(C(N)=O)cccc3[nH]2)CCCN1 [Veliparib] (first compound 0.08 µM, partner dose 1.4 µM) | 75.4 | 55.4 | 59 | 63.4 | 49.6 | 69.4 | 59.5 | 52.7 |  |  |
| Clc1ccc(Nc2nnc(Cc3ccncc3)c3ccccc23)cc1 [vatalanib] + C#Cc1cccc(Nc2ncnc3cc(OCCOC)c(OCCOC)cc23)c1 [erlotinib] (first compound 2 µM, partner dose 0.8 µM) | 96 | 64.9 | 82.6 | 78.2 | 86.1 | 93.4 | 80.3 | 84.5 |  |  |
| Clc1ccc(Nc2nnc(Cc3ccncc3)c3ccccc23)cc1 [vatalanib] + Cn1c(Nc2ccc(C(F)(F)F)cc2)nc2cc(Oc3ccnc(-c4ncc(C(F)(F)F)[nH]4)c3)ccc21 [CHIR265] (first compound 2 µM, partner dose 0.08 µM) | 72.8 | 63.5 | 61.8 | 53.4 | 80.2 | 86.6 | 58.8 | 58.8 |  |  |
| OCc1c[nH]c2ccccc12 [Indole-3-carbinol] + O=c1cc(-c2cccc3c2Sc2ccccc2S3)oc(N2CCOCC2)c1 [KU55933] (first compound 0.8 µM, partner dose 1 µM) | 103 | 102 | 108 | 144 | 94 | 105 | 89.9 | 116 | 112 | 101 |
| Nc1cccc2c1CN(C1CCC(=O)NC1=O)C2=O (stereo unspecified) [lenalidomide] + Cn1nnc2c(C(N)=O)ncn2c1=O [temozolomide] (first compound 1 µM, partner dose 2 µM) | 92.6 | 99.6 | 89.6 | 92 | 90.5 | 90.7 | 110 | 78.4 |  |  |
| Clc1ccc(Nc2nnc(Cc3ccncc3)c3ccccc23)cc1 [vatalanib] + COCC[n+]1c2c(n(Cc3cnccn3)c1C)C(=O)c1ccccc1C2=O [YM155] (first compound 2 µM, partner dose 0.0004 µM) | 73.7 | 71.4 | 89.4 | 81.8 | 96 | 94.4 | 94 | 86.8 |  |  |
| COCC[n+]1c2c(n(Cc3cnccn3)c1C)C(=O)c1ccccc1C2=O + Cc1cc(N2CCOCC2)cc2[nH]c(-c3c(NC[C@@H](O)c4cccc(Cl)c4)cc[nH]c3=O)nc12 [BMS536924] (first compound 0.0004 µM, partner dose 0.2 µM) | 46 | 82.6 | 88.7 | 92.2 | 84.9 | 66 | 67.9 | 82.5 | 57.6 | 57.7 |
| Clc1ccc(Nc2nnc(Cc3ccncc3)c3ccccc23)cc1 [vatalanib] + Cn1cc(/C=C2\C(=O)Nc3cccnc32)c2ccccc21 [GW441756] (first compound 2 µM, partner dose 0.4 µM) | 91.8 | 79.6 | 78.6 | 85.4 | 103 | 89.1 | 103 | 88.8 | 75.2 | 90.7 |
| Clc1ccc(Nc2nnc(Cc3ccncc3)c3ccccc23)cc1 [vatalanib] + COc1ccc(Cl)c(Nc2nc3ccccc3nc2NS(=O)(=O)c2cccc(NC(=O)C(C)(C)N)c2)c1 [XL147] (first compound 2 µM, partner dose 0.8 µM) | 89.6 | 66.2 | 85.8 | 77.8 | 95.6 | 91.5 | 88.1 | 86.1 |  |  |
| OCc1c[nH]c2ccccc12 [Indole-3-carbinol] + Cn1c(Nc2ccc(C(F)(F)F)cc2)nc2cc(Oc3ccnc(-c4ncc(C(F)(F)F)[nH]4)c3)ccc21 [CHIR265] (first compound 0.8 µM, partner dose 0.08 µM) | 89.8 | 65.9 | 69.6 | 56 | 75.2 | 87.4 | 55.2 | 67.7 |  |  |
| Cn1c(Nc2ccc(C(F)(F)F)cc2)nc2cc(Oc3ccnc(-c4ncc(C(F)(F)F)[nH]4)c3)ccc21 + Nc1cccc2c1CN(C1CCC(=O)NC1=O)C2=O [lenalidomide] (first compound 0.08 µM, partner dose 1 µM) | 73.5 | 71.5 | 57.5 | 60.8 | 52 | 80.2 | 50 | 41.9 |  |  |
| Cn1c(Nc2ccc(C(F)(F)F)cc2)nc2cc(Oc3ccnc(-c4ncc(C(F)(F)F)[nH]4)c3)ccc21 + COCC[n+]1c2c(n(Cc3cnccn3)c1C)C(=O)c1ccccc1C2=O [YM155] (first compound 0.08 µM, partner dose 0.0004 µM) | 52.6 | 61.1 | 65 | 77.1 | 65.5 | 75.2 | 55.1 | 56 |  |  |
| C#Cc1cccc(Nc2ncnc3cc(OCCOC)c(OCCOC)cc23)c1 [erlotinib] + COCC[n+]1c2c(n(Cc3cnccn3)c1C)C(=O)c1ccccc1C2=O [YM155] (first compound 0.8 µM, partner dose 0.0004 µM) | 43.1 | 88.9 | 74.7 | 93.6 | 101 | 88.9 | 86.2 | 94.3 |  |  |
| Cn1c(Nc2ccc(C(F)(F)F)cc2)nc2cc(Oc3ccnc(-c4ncc(C(F)(F)F)[nH]4)c3)ccc21 + COc1cc(Nc2ncc(F)c(Nc3ccc4c(n3)NC(=O)C(C)(C)O4)n2)cc(OC)c1OC [Tamatinib] (first compound 0.08 µM, partner dose 0.4 µM) | 82.7 | 85 | 74.6 | 96.9 | 82.6 | 99.6 | 97.7 | 72.2 | 95.7 | 70.4 |
| OCc1c[nH]c2ccccc12 [Indole-3-carbinol] + Nc1cccc2c1CN(C1CCC(=O)NC1=O)C2=O [lenalidomide] (first compound 0.8 µM, partner dose 1 µM) | 102 | 95 | 115 | 90.6 | 90 | 103 | 108 | 106 |  |  |
| COCC[n+]1c2c(n(Cc3cnccn3)c1C)C(=O)c1ccccc1C2=O + Nc1cccc2c1CN(C1CCC(=O)NC1=O)C2=O [lenalidomide] (first compound 0.0004 µM, partner dose 1 µM) | 46.2 | 98.8 | 67.3 | 111 | 103 | 78.8 | 86.6 | 96.2 |  |  |
| C#Cc1cccc(Nc2ncnc3cc(OCCOC)c(OCCOC)cc23)c1 [erlotinib] + C[C@]1(c2nc3c(C(N)=O)cccc3[nH]2)CCCN1 [Veliparib] (first compound 0.8 µM, partner dose 1.4 µM) | 91.5 | 83.9 | 85.4 | 103 | 85.4 | 86.4 | 78.3 | 79.2 |  |  |
| OCc1c[nH]c2ccccc12 [Indole-3-carbinol] + Cc1nc(Nc2ncc(C(=O)Nc3c(C)cccc3Cl)s2)cc(N2CCN(CCO)CC2)n1 [dasatanib] (first compound 0.8 µM, partner dose 0.004 µM) | 73.3 | 88.4 | 65 | 80.4 | 73.4 | 101 | 87 | 79.2 |  |  |
| C#Cc1cccc(Nc2ncnc3cc(OCCOC)c(OCCOC)cc23)c1 [erlotinib] + O=C(Nc1cccc(Cl)c1)Nc1ncc(CCNc2ncnc3ccsc23)s1 [SNS314] (first compound 0.8 µM, partner dose 0.0008 µM) | 103 | 80.9 | 95.1 | 90.9 | 111 | 109 | 103 | 80.2 | 94.9 | 78.6 |
| OCc1c[nH]c2ccccc12 [Indole-3-carbinol] + C#Cc1cccc(Nc2ncnc3cc(OCCOC)c(OCCOC)cc23)c1 [erlotinib] (first compound 0.8 µM, partner dose 0.8 µM) | 85.8 | 83.2 | 86.6 | 90.4 | 86.5 | 87.8 | 94.4 | 89.8 |  |  |
| OCc1c[nH]c2ccccc12 [Indole-3-carbinol] + NC(=O)Nc1cc(-c2cccc(F)c2)sc1C(=O)N[C@H]1CCCNC1 [AZD7762] (first compound 0.8 µM, partner dose 0.02 µM) | 104 | 95.4 | 84.7 | 108 | 110 | 103 | 108 | 89.6 | 111 | 120 |
| Clc1ccc(Nc2nnc(Cc3ccncc3)c3ccccc23)cc1 [vatalanib] + Nc1cccc2c1CN(C1CCC(=O)NC1=O)C2=O [lenalidomide] (first compound 2 µM, partner dose 1 µM) | 99.3 | 76.8 | 106 | 87.5 | 105 | 97 | 120 | 86.2 |  |  |
